Over roughly 81,000 sequences, “one-hybrid fitness for binding parS DNA” has its median near -0.17; the highest 2% begin near 0.51. Some of the results follow.
B1: Caulobacter ParB omega fusion; a variant is named by its letters at X, in order, B8GW30 (parent)
chain: MESVVVGEPGMSEGRRGLGRGLSALLGEVDAAPAQAPGEQLGGSREAPIEILQRNPDQPRRTFREEDLEDLSNSIREKGVLQPILVRPSPDTAGEYQIVAGERAWRAAQRAGLKTVPIMVRELDDLAVLEIGIIENVQRADLNVLEEALSYKVLMEKFERTQENIAQTIGKSXSHVANXMRLLXLPDEVQSYLVSGELTAXHARAIAAAADPVALAKQIIEGGLSVRETEALARKAPNLSAGKSKGGRPPRVKDTDTQALESDLSSVLGLDVSIDHRGSTGTLTITYATLEQLDDLCNRLTRGI

Variants of: B1
Experiment: one-hybrid fitness for binding parS DNA (scaled: cognate 1, non-cognate 0); higher = stronger binding
Details: with parS DNA site
Summary of the method: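 Selection: bacterial one-hybrid in E. coli USO, HIS3 reporter with the site 19 bp from the promoter, 48 hours at 37°C on M9-minus-histidine plus 0.1 mM IPTG and 5 mM 3-AT. Libraries were Caulobacter ParB with four randomised specificity codons, sequenced on Illumina before and after selection. Fitness is the rescaled log change in variant-to-wild-type read ratio, anchored to the cognate and non-cognate sites.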

Variant | one-hybrid fitness for binding parS DNA
LDCW | ≤ 0.2
NTDG | ≤ 0.2
NRMT | ≤ 0.2
QGAS | ≤ 0.2
PHHT | ≤ 0.2
TGTK | ≤ 0.2
RGWY | ≤ 0.2
RAYG | 1.01
SDCD | ≤ 0.2
TGIR | ≤ 0.2
APSY | ≤ 0.2
PGPW | ≤ 0.2
KNSH | ≤ 0.2
PTAM | ≤ 0.2
LWSD | ≤ 0.2
HKRT | ≤ 0.2
HEPK | ≤ 0.2
KNHM | ≤ 0.2
AMTE | ≤ 0.2
YHQT | ≤ 0.2
RYRH | ≤ 0.2
SHRT | ≤ 0.2
GSLT | ≤ 0.2
NALK | ≤ 0.2

Variant | one-hybrid fitness for binding parS DNA
STDE | ≤ 0.2
TCSG | ≤ 0.2
FSCS | ≤ 0.2
QFTS | ≤ 0.2
LGKN | ≤ 0.2
HPHS | ≤ 0.2
DMQL | ≤ 0.2
KCHW | ≤ 0.2
DTLF | ≤ 0.2
HFTG | ≤ 0.2
KCGG | ≤ 0.2
GYMC | ≤ 0.2
VVSY | ≤ 0.2
GKQW | ≤ 0.2
DLTT | ≤ 0.2
IGGM | 0.272
CSSC | ≤ 0.2
QENL | ≤ 0.2
IVFR | ≤ 0.2
HPPG | ≤ 0.2
STAM | ≤ 0.2
AFER | ≤ 0.2
FSIG | ≤ 0.2
VLLL | ≤ 0.2

Variant | one-hybrid fitness for binding parS DNA
LKAY | ≤ 0.2
PAYA | ≤ 0.2
QKRP | ≤ 0.2
AWPN | ≤ 0.2
ASLA | ≤ 0.2
SFDY | ≤ 0.2
FDAR | ≤ 0.2
DSGT | ≤ 0.2
SLPN | ≤ 0.2
KQFT | ≤ 0.2
RDCF | ≤ 0.2
CNSL | ≤ 0.2
FGRG | ≤ 0.2
SDAR | ≤ 0.2
LNGN | ≤ 0.2
SMAL | ≤ 0.2
QNNW | ≤ 0.2
SPYH | ≤ 0.2
VSPK | ≤ 0.2
DMAC | ≤ 0.2
RDSE | ≤ 0.2
VGDC | ≤ 0.2
DLND | ≤ 0.2
HLGG | ≤ 0.2

Variant | one-hybrid fitness for binding parS DNA
LVSW | ≤ 0.2
ANDP | ≤ 0.2
NVSG | ≤ 0.2
GPLN | ≤ 0.2
KMGG | ≤ 0.2
ANNK | ≤ 0.2
ASSR | ≤ 0.2
RCLW | 0.285
YDYS | ≤ 0.2
NSYW | ≤ 0.2
NQHH | ≤ 0.2
RHFY | 0.377
GPRT | ≤ 0.2
AERH | ≤ 0.2
IDYG | ≤ 0.2
SGKL | ≤ 0.2
DPEY | ≤ 0.2
VNHC | ≤ 0.2
LPYE | ≤ 0.2
VITV | ≤ 0.2
KVIC | ≤ 0.2
YGGG | ≤ 0.2
VSAG | ≤ 0.2
FLGP | ≤ 0.2

Variant | one-hybrid fitness for binding parS DNA
RYVN | 0.364
HSMK | ≤ 0.2
LTCL | ≤ 0.2
LCIK | ≤ 0.2
KLQL | ≤ 0.2
VSVC | ≤ 0.2
QSLM | ≤ 0.2
VSFA | ≤ 0.2
RHGD | ≤ 0.2
RAQN | 0.436
ESYV | ≤ 0.2
VPVM | ≤ 0.2
QGSC | ≤ 0.2
GVYT | ≤ 0.2
ALMN | ≤ 0.2
QNSV | ≤ 0.2
VESC | ≤ 0.2
ITVA | ≤ 0.2
RVQH | 0.223
QHGF | ≤ 0.2
VFPL | ≤ 0.2
QMKF | ≤ 0.2
SPKH | ≤ 0.2
GPPM | ≤ 0.2

Variant | one-hybrid fitness for binding parS DNA
QMLH | ≤ 0.2
QYTA | ≤ 0.2
SPVD | ≤ 0.2
LQGK | ≤ 0.2
PVCY | ≤ 0.2
TYYR | ≤ 0.2
IIIV | ≤ 0.2
GSPQ | ≤ 0.2
WTKS | ≤ 0.2
LYSF | ≤ 0.2
MGRM | ≤ 0.2
EHHG | ≤ 0.2
DTSN | ≤ 0.2
LLRD | ≤ 0.2
VWMT | ≤ 0.2
CTTA | ≤ 0.2
GDNM | ≤ 0.2
ERQC | ≤ 0.2
MSKR | ≤ 0.2
ISAT | ≤ 0.2
FGLT | ≤ 0.2
KTFS | ≤ 0.2
RQIR | ≤ 0.2
NQLD | ≤ 0.2

Variant | one-hybrid fitness for binding parS DNA
SYIT | ≤ 0.2
IHSW | ≤ 0.2
RHME | ≤ 0.2
QCDF | ≤ 0.2
SKNY | ≤ 0.2
KRSK | ≤ 0.2
CRVW | ≤ 0.2
LGAM | ≤ 0.2
MERY | ≤ 0.2
SANS | ≤ 0.2
KCLA | ≤ 0.2
RCRT | 0.818
HPDS | ≤ 0.2
RLAK | ≤ 0.2
RINT | 0.914
VYVE | ≤ 0.2
QETN | ≤ 0.2
MHSH | ≤ 0.2
RTFP | ≤ 0.2
RIAE | ≤ 0.2
QCLV | ≤ 0.2
SCIV | ≤ 0.2
IPSW | ≤ 0.2
QRRK | ≤ 0.2

Variant | one-hybrid fitness for binding parS DNA
HFDG | ≤ 0.2
FFAM | ≤ 0.2
TKMF | ≤ 0.2
PIKT | ≤ 0.2
GGWY | ≤ 0.2
RALP | ≤ 0.2
QCAS | ≤ 0.2
PTYN | ≤ 0.2
LRYK | ≤ 0.2
LDAG | ≤ 0.2
LGQC | ≤ 0.2
DCHR | ≤ 0.2
YHTN | ≤ 0.2
TTNW | ≤ 0.2
RWTL | ≤ 0.2
WPCP | ≤ 0.2
FATL | ≤ 0.2
TRDV | ≤ 0.2
WTCG | ≤ 0.2
MRTW | ≤ 0.2
RDLV | ≤ 0.2
SHSK | ≤ 0.2
HKFY | ≤ 0.2
LVNY | ≤ 0.2

Variant | one-hybrid fitness for binding parS DNA
PVGF | ≤ 0.2
LLIA | ≤ 0.2
PGFY | ≤ 0.2
PKSF | ≤ 0.2
IMKL | ≤ 0.2
NSSS | ≤ 0.2
MMLR | ≤ 0.2
PTPY | ≤ 0.2
RKKP | ≤ 0.2
WVTV | ≤ 0.2
STDI | ≤ 0.2
RWGW | ≤ 0.2
WNDR | ≤ 0.2
KRVA | ≤ 0.2
YRIR | ≤ 0.2
AITP | ≤ 0.2
DPVA | ≤ 0.2
ARHE | ≤ 0.2
TTIC | ≤ 0.2
PTYF | ≤ 0.2
TTMW | ≤ 0.2
TRGM | ≤ 0.2
AARN | ≤ 0.2
HIAA | ≤ 0.2

Variant | one-hybrid fitness for binding parS DNA
SLHE | ≤ 0.2
NAYM | ≤ 0.2
KFYG | ≤ 0.2
ETPC | ≤ 0.2
LYNG | ≤ 0.2
DNSG | ≤ 0.2
INAI | ≤ 0.2
APHF | ≤ 0.2
SIVC | ≤ 0.2
SVTA | ≤ 0.2
WVCS | ≤ 0.2
MAHM | ≤ 0.2
RLMK | ≤ 0.2
QCVN | ≤ 0.2
QHRD | ≤ 0.2
DHKE | ≤ 0.2
QRKM | ≤ 0.2
QQTP | ≤ 0.2
EILC | ≤ 0.2
QAFV | ≤ 0.2
TKNV | ≤ 0.2
YPPV | ≤ 0.2
RMFL | 0.206
SACN | ≤ 0.2

Variant | one-hybrid fitness for binding parS DNA
EWMS | ≤ 0.2
LNAG | ≤ 0.2
WSLK | ≤ 0.2
NKPV | ≤ 0.2
RSQK | ≤ 0.2
LDRA | ≤ 0.2
APGV | ≤ 0.2
MTVD | ≤ 0.2
SKTK | ≤ 0.2
TRAC | ≤ 0.2
RQPK | ≤ 0.2
FTLC | ≤ 0.2
PDEW | ≤ 0.2
ADKN | ≤ 0.2
IALR | ≤ 0.2
GKYN | ≤ 0.2
VWNK | ≤ 0.2
YHKG | ≤ 0.2
KKAA | ≤ 0.2
HRNI | ≤ 0.2
GNHG | ≤ 0.2
RTSF | 0.246
QPHS | ≤ 0.2
CQLL | ≤ 0.2

Variant | one-hybrid fitness for binding parS DNA
SALM | ≤ 0.2
AEMR | ≤ 0.2
RYCK | ≤ 0.2
YETT | ≤ 0.2
QRVF | ≤ 0.2
RAYM | 0.324
HHMT | ≤ 0.2
AFHC | ≤ 0.2
VGDK | ≤ 0.2
MWSW | ≤ 0.2
CTWS | ≤ 0.2
SIKS | ≤ 0.2
PTGC | ≤ 0.2
RRAR | ≤ 0.2
HMRV | ≤ 0.2
TSTD | ≤ 0.2
YIAG | ≤ 0.2
VPAF | ≤ 0.2
PRAE | ≤ 0.2
VENP | ≤ 0.2
TAAE | ≤ 0.2
WNLG | ≤ 0.2
EQLV | ≤ 0.2
QYQF | ≤ 0.2

Variant | one-hybrid fitness for binding parS DNA
DWWR | ≤ 0.2
LADM | ≤ 0.2
RDYL | ≤ 0.2
PYDK | ≤ 0.2
SHPD | ≤ 0.2
QNNC | ≤ 0.2
QDPG | ≤ 0.2
QPQI | ≤ 0.2
QNCV | ≤ 0.2
TLHS | ≤ 0.2
QASG | ≤ 0.2
MFSL | ≤ 0.2
HLKH | ≤ 0.2
SIER | ≤ 0.2
QGAK | ≤ 0.2
YSPW | ≤ 0.2
VLVI | ≤ 0.2
SNPS | ≤ 0.2

From a collection of fitness landscapes (doi:10.1016/j.celrep.2020.107928)
